# Some of the results follow.
# B1: MAL-II (Maackia amurensis), P93248 (protein)
# chain: ATSNSKPTQVLLATFLTFFFLLLNNVNSSDELSFTINNFVPNEADLLFQGEASVSSTGVLQLTRVENGQPQQYSVGRALYAAPVRIWDNTTGSVASFSTSFTFVVKAPNPTITSDGLAFFLAPPDSQIPSGRVSKYLGLFNNSNSDSSNQIVAVEFDTYFGHSYDPWDPNYRHIGIDVNGIESIKTVQWDWINGGVAFATITYLAPNKTLIASLVYPSNQTSFIVAASVDLKEILPEWVRVGFSAATGYPTQVETHDVLSWSFTSTLEANSDAATENNVHIARYTA
# Legend:
# Assay in all cases: glycan array binding signal (z-score within array); higher = stronger binding
# Conditions in all cases: glycan notation: IUPAC condensed, linker removed
# [1] = molecular target: Neu5Ac(a2-3)Gal(b1-4)[Fuc(a1-3)]GlcNAc(b1-6)[Gal(b1-3)]GalNAc
# Summary of the method: (§1)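 The Consortium for Functional Glycomics database supplied 3228 glycan arrays, of which those lacking an available protein sequence were dropped. The binding signal, a within-array Z-score, was averaged across arrays of the same protein sequence and across linkers. Negative scores can be read as non-binding.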
# [2] = molecular target: Neu5Ac(a2-3)Gal(b1-4)[Fuc(a1-3)]GlcNAc(b1-6)[Neu5Ac(a2-3)Gal(b1-3)]GalNAc
# Summary of the method: as §1
# [3] = molecular target: Neu5Ac(a2-3)Gal(b1-4)[Fuc(a1-3)]GlcNAc6S
# Summary of the method: as §1
# [4] = molecular target: Neu5Ac(a2-3)Gal6S(b1-4)GlcNAc
# Summary of the method: as §1
# [5] = molecular target: Neu5Ac(a2-3)Gal6S(b1-4)[Fuc(a1-3)]GlcNAc
# Summary of the method: as §1
# Neu5Ac(a2-3)GalNAc = molecular target: Neu5Ac(a2-3)GalNAc
# Summary of the method: as §1
# [6] = molecular target: Neu5Ac(a2-3)GalNAc(b1-4)GlcNAc
# Summary of the method: as §1
# [7] = molecular target: Neu5Ac(a2-3)[GalNAc(b1-4)]Gal(b1-4)Glc
# Summary of the method: as §1
# [8] = molecular target: Neu5Ac(a2-3)[GalNAc(b1-4)]Gal(b1-4)GlcNAc
# Summary of the method: as §1
# [9] = molecular target: Neu5Ac(a2-3)[GalNAc(b1-4)]Gal(b1-4)GlcNAc(b1-3)GalNAc
# Summary of the method: as §1
# [10] = molecular target: Neu5Ac(a2-3)[Neu5Ac(a2-6)]GalNAc
# Summary of the method: as §1
# Neu5Ac(a2-6)Gal = molecular target: Neu5Ac(a2-6)Gal
# Summary of the method: as §1
# [11] = molecular target: Neu5Ac(a2-6)Gal(b1-3)GlcNAc(b1-3)[Gal(b1-4)GlcNAc(b1-6)]Gal(b1-4)Glc
# Summary of the method: as §1
# Neu5Ac(a2-6)Gal(b1-4)Glc = molecular target: Neu5Ac(a2-6)Gal(b1-4)Glc
# Summary of the method: as §1
# [12] = molecular target: Neu5Ac(a2-6)Gal(b1-4)GlcNAc
# Summary of the method: as §1
# [13] = molecular target: Neu5Ac(a2-6)Gal(b1-4)GlcNAc(b1-2)Man
# Summary of the method: as §1
# [14] = molecular target: Neu5Ac(a2-6)Gal(b1-4)GlcNAc(b1-2)Man(a1-3)Man(b1-4)GlcNAc(b1-4)GlcNAc
# Summary of the method: as §1
# [15] = molecular target: Neu5Ac(a2-6)Gal(b1-4)GlcNAc(b1-2)Man(a1-3)[Gal(b1-4)GlcNAc(b1-2)Man(a1-6)]Man(b1-4)GlcNAc(b1-4)GlcNAc
# Summary of the method: as §1
# [16] = molecular target: Neu5Ac(a2-6)Gal(b1-4)GlcNAc(b1-2)Man(a1-3)[GlcNAc(b1-2)Man(a1-6)]Man(b1-4)GlcNAc(b1-4)GlcNAc
# Summary of the method: as §1
# [17] = molecular target: Neu5Ac(a2-6)Gal(b1-4)GlcNAc(b1-2)Man(a1-3)[GlcNAc(b1-2)Man(b1-4)GlcNAc(b1-2)Man(a1-6)]Man(b1-4)GlcNAc(b1-4)GlcNAc
# Summary of the method: as §1
# [18] = molecular target: Neu5Ac(a2-6)Gal(b1-4)GlcNAc(b1-2)Man(a1-3)[GlcNAc(b1-4)][Neu5Ac(a2-6)Gal(b1-4)GlcNAc(b1-2)Man(a1-6)]Man(b1-4)GlcNAc(b1-4)GlcNAc
# Summary of the method: as §1
# [19] = molecular target: Neu5Ac(a2-6)Gal(b1-4)GlcNAc(b1-2)Man(a1-3)[Man(a1-6)]Man(b1-4)GlcNAc(b1-4)GlcNAc
# Summary of the method: as §1
# [20] = molecular target: Neu5Ac(a2-6)Gal(b1-4)GlcNAc(b1-2)Man(a1-3)[Neu5Ac(a2-3)Gal(b1-4)GlcNAc(b1-2)Man(a1-6)]Man(b1-4)GlcNAc(b1-4)GlcNAc
# Summary of the method: as §1
# [21] = molecular target: Neu5Ac(a2-6)Gal(b1-4)GlcNAc(b1-2)Man(a1-3)[Neu5Ac(a2-6)Gal(b1-4)GlcNAc(b1-2)Man(a1-6)]Man(b1-4)GlcNAc(b1-4)GlcNAc
# Summary of the method: as §1
# [22] = molecular target: Neu5Ac(a2-6)Gal(b1-4)GlcNAc(b1-2)Man(a1-3)[Neu5Ac(a2-6)Gal(b1-4)GlcNAc(b1-2)Man(a1-6)]Man(b1-4)GlcNAc(b1-4)[Fuc(a1-6)]GlcNAc
# Summary of the method: as §1
# [23] = molecular target: Neu5Ac(a2-6)Gal(b1-4)GlcNAc(b1-2)Man(a1-6)Man(b1-4)GlcNAc(b1-4)GlcNAc
# Summary of the method: as §1
# [24] = molecular target: Neu5Ac(a2-6)Gal(b1-4)GlcNAc(b1-2)Man(a1-6)[Gal(b1-4)GlcNAc(b1-2)Man(a1-3)]Man(b1-4)GlcNAc(b1-4)GlcNAc
# Summary of the method: as §1
# [25] = molecular target: Neu5Ac(a2-6)Gal(b1-4)GlcNAc(b1-2)Man(a1-6)[GlcNAc(b1-2)Man(a1-3)]Man(b1-4)GlcNAc(b1-4)GlcNAc
# Summary of the method: as §1
# [26] = molecular target: Neu5Ac(a2-6)Gal(b1-4)GlcNAc(b1-2)Man(a1-6)[Man(a1-3)]Man(b1-4)GlcNAc(b1-4)GlcNAc
# Summary of the method: as §1
# [27] = molecular target: Neu5Ac(a2-6)Gal(b1-4)GlcNAc(b1-2)[Neu5Ac(a2-6)Gal(b1-4)GlcNAc(b1-4)]Man(a1-3)[GlcNAc(b1-4)][Neu5Ac(a2-6)Gal(b1-4)GlcNAc(b1-2)[Neu5Ac(a2-6)Gal(b1-4)GlcNAc(b1-6)]Man(a1-6)]Man(b1-4)GlcNAc(b1-4)GlcNAc
# Summary of the method: as §1
# [28] = molecular target: Neu5Ac(a2-6)Gal(b1-4)GlcNAc(b1-2)[Neu5Ac(a2-6)Gal(b1-4)GlcNAc(b1-4)]Man(a1-3)[GlcNAc(b1-4)][Neu5Ac(a2-6)Gal(b1-4)GlcNAc(b1-4)Man(a1-6)]Man(b1-4)GlcNAc(b1-4)GlcNAc
# Summary of the method: as §1
# [29] = molecular target: Neu5Ac(a2-6)Gal(b1-4)GlcNAc(b1-2)[Neu5Ac(a2-6)Gal(b1-4)GlcNAc(b1-6)]Man(a1-6)[Neu5Ac(a2-6)Gal(b1-4)GlcNAc(b1-2)Man(a1-3)][GlcNAc(b1-4)]Man(b1-4)GlcNAc(b1-4)GlcNAc
# Summary of the method: as §1
# [30] = molecular target: Neu5Ac(a2-6)Gal(b1-4)GlcNAc(b1-3)Gal(b1-3)GlcNAc
# Summary of the method: as §1
# [31] = molecular target: Neu5Ac(a2-6)Gal(b1-4)GlcNAc(b1-3)Gal(b1-4)GlcNAc
# Summary of the method: as §1
# [32] = molecular target: Neu5Ac(a2-6)Gal(b1-4)GlcNAc(b1-3)Gal(b1-4)GlcNAc(b1-2)Man(a1-3)[Neu5Ac(a2-6)Gal(b1-4)GlcNAc(b1-3)Gal(b1-4)GlcNAc(b1-2)Man(a1-6)]GalNAc
# Summary of the method: as §1
# [33] = molecular target: Neu5Ac(a2-6)Gal(b1-4)GlcNAc(b1-3)Gal(b1-4)GlcNAc(b1-3)Gal(b1-4)GlcNAc
# Summary of the method: as §1
# [34] = molecular target: Neu5Ac(a2-6)Gal(b1-4)GlcNAc(b1-3)Gal(b1-4)GlcNAc(b1-3)Gal(b1-4)GlcNAc(b1-2)Man(a1-3)[Neu5Ac(a2-6)Gal(b1-4)GlcNAc(b1-3)Gal(b1-4)GlcNAc(b1-3)Gal(b1-4)GlcNAc(b1-2)Man(a1-6)]GalNAc
# Summary of the method: as §1
# [35] = molecular target: Neu5Ac(a2-6)Gal(b1-4)GlcNAc(b1-3)Gal(b1-4)GlcNAc(b1-3)GalNAc
# Summary of the method: as §1
# [36] = molecular target: Neu5Ac(a2-6)Gal(b1-4)GlcNAc(b1-3)Gal(b1-4)GlcNAc(b1-3)[Neu5Ac(a2-6)Gal(b1-4)GlcNAc(b1-3)Gal(b1-4)GlcNAc(b1-6)]GalNAc
# Summary of the method: as §1
# [37] = molecular target: Neu5Ac(a2-6)Gal(b1-4)GlcNAc(b1-3)Gal(b1-4)GlcNAc(b1-6)[Gal(b1-3)]GalNAc
# Summary of the method: as §1
# [38] = molecular target: Neu5Ac(a2-6)Gal(b1-4)GlcNAc(b1-3)Gal(b1-4)[Fuc(a1-3)]GlcNAc(b1-3)Gal(b1-4)[Fuc(a1-3)]GlcNAc
# Summary of the method: as §1
# [39] = molecular target: Neu5Ac(a2-6)Gal(b1-4)GlcNAc(b1-3)GalNAc
# Summary of the method: as §1
binder,measurement,setting,value
B1,glycan array binding signal (z-score),[1],0.76
same,glycan array binding signal (z-score),[2],0.889
same,glycan array binding signal (z-score),[3],-0.218
same,glycan array binding signal (z-score),[4],-0.224
same,glycan array binding signal (z-score),[5],-0.22
same,glycan array binding signal (z-score),Neu5Ac(a2-3)GalNAc,-0.313
same,glycan array binding signal (z-score),[6],-0.209
same,glycan array binding signal (z-score),[7],-0.247
same,glycan array binding signal (z-score),[8],-0.213
same,glycan array binding signal (z-score),[9],0.272
same,glycan array binding signal (z-score),[10],-0.272
same,glycan array binding signal (z-score),Neu5Ac(a2-6)Gal,-0.234
same,glycan array binding signal (z-score),[11],-0.18
same,glycan array binding signal (z-score),Neu5Ac(a2-6)Gal(b1-4)Glc,-0.184
same,glycan array binding signal (z-score),[12],-0.142
same,glycan array binding signal (z-score),[13],-0.102
same,glycan array binding signal (z-score),[14],-0.2
same,glycan array binding signal (z-score),[15],-0.171
same,glycan array binding signal (z-score),[16],-0.15
same,glycan array binding signal (z-score),[17],-0.187
same,glycan array binding signal (z-score),[18],-0.283
same,glycan array binding signal (z-score),[19],-0.172
same,glycan array binding signal (z-score),[20],-0.233
same,glycan array binding signal (z-score),[21],-0.212
same,glycan array binding signal (z-score),[22],-0.089
same,glycan array binding signal (z-score),[23],-0.25
same,glycan array binding signal (z-score),[24],-0.26
same,glycan array binding signal (z-score),[25],-0.214
same,glycan array binding signal (z-score),[26],-0.223
same,glycan array binding signal (z-score),[27],-0.112
same,glycan array binding signal (z-score),[28],-0.028
same,glycan array binding signal (z-score),[29],-0.057
same,glycan array binding signal (z-score),[30],-0.178
same,glycan array binding signal (z-score),[31],-0.191
same,glycan array binding signal (z-score),[32],0.3
same,glycan array binding signal (z-score),[33],-0.19
same,glycan array binding signal (z-score),[34],0.565
same,glycan array binding signal (z-score),[35],-0.144
same,glycan array binding signal (z-score),[36],0.767
same,glycan array binding signal (z-score),[37],-0.182
same,glycan array binding signal (z-score),[38],-0.108
same,glycan array binding signal (z-score),[39],-0.175

# — the supplement of paper PMC8728848
